Measurements reported in paper PMC4336329 (PLoS ONE, 2015).
Among all 310,000 compounds or so, about 2,200 (0.71%) showed an effect of 50% or more. Effects have a minus sign here. The list shows a part of the results.

Target: human ether-à-go-go-related gene (hERG) potassium channel (human, UniProt Q12809)
Test: primary screen, population patch clamp on CHO cells stably expressing hERG

Chain of human ether-à-go-go-related gene (hERG) potassium channel (Q12809 whole entry, looked up): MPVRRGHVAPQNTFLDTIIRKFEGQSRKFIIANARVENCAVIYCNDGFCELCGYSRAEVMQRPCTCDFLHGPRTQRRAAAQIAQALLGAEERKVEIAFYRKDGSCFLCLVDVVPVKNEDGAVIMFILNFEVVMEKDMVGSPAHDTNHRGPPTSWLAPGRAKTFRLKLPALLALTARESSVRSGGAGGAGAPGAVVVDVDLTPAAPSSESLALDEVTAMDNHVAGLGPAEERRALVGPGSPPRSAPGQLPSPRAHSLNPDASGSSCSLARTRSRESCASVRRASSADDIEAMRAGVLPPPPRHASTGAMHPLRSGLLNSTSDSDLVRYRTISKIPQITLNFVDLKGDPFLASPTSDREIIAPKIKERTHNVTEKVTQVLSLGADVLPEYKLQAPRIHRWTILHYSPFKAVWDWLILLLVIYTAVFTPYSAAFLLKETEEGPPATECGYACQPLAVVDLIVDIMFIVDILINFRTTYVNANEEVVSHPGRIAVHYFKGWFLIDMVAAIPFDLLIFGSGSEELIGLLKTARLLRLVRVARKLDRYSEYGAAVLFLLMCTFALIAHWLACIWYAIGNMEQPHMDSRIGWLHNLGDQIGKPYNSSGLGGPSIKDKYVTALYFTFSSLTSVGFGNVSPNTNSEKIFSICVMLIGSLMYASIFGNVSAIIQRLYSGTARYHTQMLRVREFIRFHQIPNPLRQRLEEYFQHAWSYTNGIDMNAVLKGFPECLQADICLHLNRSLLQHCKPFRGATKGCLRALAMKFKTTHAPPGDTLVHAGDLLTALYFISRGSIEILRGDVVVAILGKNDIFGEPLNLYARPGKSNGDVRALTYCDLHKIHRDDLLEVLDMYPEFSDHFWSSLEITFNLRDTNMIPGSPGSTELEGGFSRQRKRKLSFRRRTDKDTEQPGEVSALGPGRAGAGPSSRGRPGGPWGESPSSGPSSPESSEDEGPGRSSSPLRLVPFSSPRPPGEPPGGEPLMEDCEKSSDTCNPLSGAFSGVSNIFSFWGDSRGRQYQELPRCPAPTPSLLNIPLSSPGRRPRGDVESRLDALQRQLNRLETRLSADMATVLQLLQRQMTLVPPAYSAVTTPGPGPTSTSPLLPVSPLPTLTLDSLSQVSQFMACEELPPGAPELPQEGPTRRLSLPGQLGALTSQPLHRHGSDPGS

Row | Structure (SMILES) | hERG current change (%, negative = inhibition) at 1uM [%]
1 | COc1ccc(/C=N/NC(=O)c2c(C)nc3ccc(Cl)cn23)cc1OC | 6.45
2 | CCOC(=O)C1CCN(S(=O)(=O)c2ccc(-c3cc(C(F)(F)F)n(C)n3)s2)CC1 | -8.95
3 | COc1ccc(CCNS(=O)(=O)c2ccc(C(=O)NCc3ccco3)cc2)cc1OC | 8.44
4 | Cc1ccc(CNC(=O)C2CCCCN2S(=O)(=O)c2ccccc2)cc1 (stereo not shown) | 15
5 | Cc1ccc(S(=O)(=O)NNC(=S)Nc2ccc(Cl)cc2)cc1 | 5.21
6 | COc1ccc(NC(=O)C2CC(=O)N(C)C(=Nc3ccc4c(c3)OCO4)S2)cc1 (stereo not shown) | -7.2
7 | Cc1ccc(NC(=O)NNC(=O)COc2ccc3ccccc3c2)cc1 | 12.5
8 | O=C(NCCCCc1ccccc1)c1ccccc1Cl | 13.6
9 | Cc1ccc(CN(C(=O)c2ccc([N+](=O)[O-])cc2)C2CCS(=O)(=O)C2)o1 (stereo not shown) | 4.21
10 | COc1cccc(-c2nnc(NC(=O)c3cccs3)s2)c1 | 21.4
11 | Cc1[nH]nc2c1C(Cc1ccccc1)C(C#N)=C(N)O2 (stereo not shown) | 1.21
12 | COc1ccccc1OCC(=O)Nc1ccc(S(=O)(=O)N2CCOCC2)cc1 | 1.96
13 | CCOC(=O)CSc1nc2c(c(=O)[nH]c(=O)n2C)n1C/C=C(/C)Cl | -7.88
14 | CC(C(=O)NCC1CCCO1)c1ccc([N+](=O)[O-])cc1 (stereo not shown) | -0.0299
15 | O=C(NCc1ccccc1)C1=C[C@@H](c2coc3ccccc3c2=O)C[C@@H](OCCCCO)O1 | -42.5
16 | CSC[C@H](NC(=O)Cc1c(C)c2cc3c(C)c(C)oc3cc2oc1=O)C(=O)N[C@@H](Cc1ccccc1)C(=O)O | 3.32
17 | COP(=O)(OC)C(Nc1ccc(Cl)cc1)c1ccccc1 (stereo not shown) | 8.64
18 | O=C(CSCc1ccccc1)Nc1ccc(F)cc1F | 6.48
19 | COc1cccc(N2C(=O)NC(=O)/C(=C/c3ccc4c(c3)Cc3ccccc3-4)C2=O)c1 | 3.88
20 | CCCCn1c(N)c(N(CC(C)C)C(=O)c2cccc(S(=O)(=O)N3CCCCCC3)c2)c(=O)[nH]c1=O | 4.52
21 | COCCNC(=S)N=Nc1c(O)[nH]c2ccc([N+](=O)[O-])cc12 | -0.751
22 | CCCNc1c(NS(=O)(=O)c2ccc3c(c2)CCCC3)c(=O)oc2ccccc12 | 13.1

Row | Structure (SMILES) | hERG current change (%, negative = inhibition) at 1uM [%]
23 | CCN(CC(=O)NCc1ccc(Cl)cc1)C(=O)c1ccc(S(=O)(=O)NCc2ccco2)cc1 | -0.864
24 | O=C(Nc1cccc(C(F)(F)F)c1)c1cccnc1NCCc1ccccc1 | 7.9
25 | O=C(O)C[C@]1(C(=O)Nc2ccc(F)cc2)CC(/C=C/c2ccccc2)=NO1 | 9.76
26 | COc1cc(/C=C2\N=C(C)OC2=O)cc(OC)c1OC | 16.3
27 | COc1cc(C(=O)OCn2nnc3ccccc3c2=O)cc(OC)c1OC | 15.8
28 | COc1ccccc1N=Nc1c(C)[nH]n(-c2ccccc2)c1=O | 14
29 | CC(C)(C)c1ccc(OCCON2C(=O)CCC2=O)c(Cl)c1 | -14
30 | Cc1cc(N(C)/N=C/c2ccccc2O)nc(-c2ccccc2O)n1 | 20.6
31 | O=c1c2ccccc2nc(-c2cccs2)n1-c1cccc2ccccc12 | 9.63
32 | CC(C)(C)Sc1ccccc1S(=O)(=O)C(C)(C)C | 7.35
33 | O=c1ccc(-c2ccc(S(=O)(=O)Nc3ccccc3Cl)o2)n[nH]1 | 13.8
34 | CCCCC(O)(CCN1CCOCC1)c1ccc(Cl)cc1.Cl (stereo not shown) | -51.3
35 | CN(C)c1ccc(P(=O)(Nc2ccc([N+](=O)[O-])cc2)N2CCOCC2)c(NC(=O)c2cccs2)c1 (stereo not shown) | 12.4
36 | CC(C)NC(=O)COC(=O)CNC(=O)c1cc(Cl)cc([N+](=O)[O-])c1 | 3.77
37 | CSc1nc(C)cc(C)c1S(=O)(=O)c1ccccc1C | 16.2
38 | CC(C)C[C@H](NC(=O)c1nc[nH]c1C(=O)NC1CC[NH2+]CC1)C(=O)OCc1ccccc1.[Cl-] | 13.1
39 | CC(C)(C)c1ccc(C(=O)N2CCNC(=O)C2CC(=O)Nc2ccc(F)cc2)cc1 (stereo not shown) | 11.2
40 | C/C(=N\NC(=O)C1(C)CC1(Br)Br)c1ccc(NC(=O)C2CCC2)cc1 (stereo not shown) | 6.57
41 | C[C@H](NC(=O)c1nc[nH]c1C(=O)N[C@H](C)c1ccccc1)C(=O)OC(C)(C)C | 10.7
42 | CC(=O)c1sc2c(c1OC(=O)c1ccc(Cl)cc1Cl)c(=O)n(-c1ccccc1)c(=S)n2-c1ccccc1 | 16
43 | Cn1c(Cn2c(=O)sc3ccccc32)nnc1SCC(=O)N1CCCCCC1 | -1.82
